Experimental findings from article PMC11995724, “Antibiotic target discovery by integrated phenotypic and activity-based profiling of electrophilic fragments” (Cell chemical biology, 2025) are described below.

Hit rate of the full screen: of about 3,200 compounds, about 110 (3.4%) showed an effect of 50% or more. The list shows a part of the results.

The subject of this assay is T1, V. cholerae SAD30.
T1 construct: SAD30
Further details: species or system S. aureus MSSA476 (TSB) or V. cholerae SAD30 (LB); 384-well bacterial growth screen at 25 uM, OD600 relative to DMSO control. The conditions noted are these: relative growth, OD600, LB; 25 µM; inhibitor.
Turning to `C=CC(=O)N1CCCC(C(=O)O)C1` (stereo not drawn) [1-G12, 1-(prop-2-enoyl)piperidine-3-carboxylic acid], the “% of control remaining” value came to 97.0105%.
As to `COc1ccc(C(NC(=O)CCl)C2CC2)cc1` (stereo not drawn) [4-K19, 2-chloro-N-[cyclopropyl(4-methoxyphenyl)methyl]acetamide], the “% of control remaining” value turned out to be 103.343%.
To `CC1=CSC(=C(C#N)C(=O)NCc2ccco2)N1c1ccccc1` [8-D13, 2-cyano-N-[(furan-2-yl)methyl]-2-(4-methyl-3-phenyl-2,3-dihydro-1,3-thiazol-2-ylidene)acetamide] belongs 70.7682%; to `COc1ccc(Cc2cnc(NC(=O)CCl)s2)cc1` [4-F17, 2-chloro-N-{5-[(4-methoxyphenyl)methyl]-1,3-thiazol-2-yl}acetamide], 111.451%.
In the case of `Cc1ccc(NC(=O)C(C#N)=Cc2ccccc2OC(F)F)cc1` [9-D05, 2-cyano-3-[2-(difluoromethoxy)phenyl]-N-(4-methylphenyl)prop-2-enamide], the “% of control remaining” value was determined as 79.6057%.
In the case of `O=C(CCl)NC(Cc1cccc(O)c1)c1ccccc1` (stereo not drawn) [7-N20, 2-chloro-N-[2-(3-hydroxyphenyl)-1-phenylethyl]acetamide], the “% of control remaining” value was 81.5463%.
Regarding `C=CC(=O)N1CCCC1c1cccc(C)c1` (stereo not drawn) [1-N11, 1-[2-(3-methylphenyl)pyrrolidin-1-yl]prop-2-en-1-one], the “% of control remaining” value stood at 86.846%.
Regarding `C=CC(=O)Nc1cc(SCc2ccccc2C)ncn1` [1-F08, N-(6-{[(2-methylphenyl)methyl]sulfanyl}pyrimidin-4-yl)prop-2-enamide], the “% of control remaining” value was found to be 109.421%.
Regarding `C=CC(=O)N1CCCN(S(N)(=O)=O)CC1` [3-K10, 4-(prop-2-enoyl)-1,4-diazepane-1-sulfonamide], the “% of control remaining” value came out at 92.0897%.
Regarding `Cc1ccsc1-c1nnc(NC(=O)CCl)o1` [6-K03, 2-chloro-N-[5-(3-methylthiophen-2-yl)-1,3,4-oxadiazol-2-yl]acetamide], the “% of control remaining” value was determined as 105.109%.
On to `CC(Cl)C(=O)N1CCCC1c1cccc(N(C)C)c1` (stereo not drawn) [7-A22, 2-chloro-1-{2-[3-(dimethylamino)phenyl]pyrrolidin-1-yl}propan-1-one], for which the “% of control remaining” value worked out at 87.7581%.
As for `CC(Cl)C(=O)N(C)Cc1ncc(C2CC2)o1` (stereo not drawn) [5-B22, 2-chloro-N-[(5-cyclopropyl-1,3-oxazol-2-yl)methyl]-N-methylpropanamide], the “% of control remaining” value is recorded as 108.774%.
Take `C=CC(=O)N(C)c1ccc(C#N)c(Cl)c1` [3-G05, N-(3-chloro-4-cyanophenyl)-N-methylprop-2-enamide]: the “% of control remaining” value is recorded as 100.029%.
Next, `COc1cccc(NC(=O)C(C#N)=Cc2c[nH]c(-c3ccccc3)n2)c1` [9-C20, 2-cyano-N-(3-methoxyphenyl)-3-(2-phenyl-1H-imidazol-4-yl)prop-2-enamide]: 84.0925%; `N#CC(=Cc1ccc(-c2cccc([N+](=O)[O-])c2)s1)C(=O)NC1CC1` [9-G18, 2-cyano-N-cyclopropyl-3-[5-(3-nitrophenyl)thiophen-2-yl]prop-2-enamide]: 86.1319%.
With `CC(Cl)C(=O)NC1CCCN(c2cnn(C)c2)C1` (stereo not drawn) [7-K19, 2-chloro-N-[1-(1-methyl-1H-pyrazol-4-yl)piperidin-3-yl]propanamide], the “% of control remaining” value came to 79.4317%.
As to `C=CC(=O)NC(C)(C)c1noc(CCC)n1` [1-N10, N-[2-(5-propyl-1,2,4-oxadiazol-3-yl)propan-2-yl]prop-2-enamide], the “% of control remaining” value came to 67.2228%.
For `N#CC(=Cc1c(F)cccc1F)C(=O)NCCc1ccccc1` [8-D18, 2-cyano-3-(2,6-difluorophenyl)-N-(2-phenylethyl)prop-2-enamide], the “% of control remaining” value was determined as 66.8253%.
Next, `O=C(CCl)Nc1nc2ccc([N+](=O)[O-])cc2s1` [4-H08, 2-chloro-N-(6-nitro-1,3-benzothiazol-2-yl)acetamide]: 112.832%; `Cc1ccc(NC(=O)C(C#N)=Cc2cccc(Cl)c2Cl)cc1` [8-D06, 2-cyano-3-(2,3-dichlorophenyl)-N-(4-methylphenyl)prop-2-enamide]: 77.0224%; `O=C(CCl)NCc1ccn(Cc2ccccc2)n1` [7-H10, N-[(1-benzyl-1H-pyrazol-3-yl)methyl]-2-chloroacetamide]: 82.6037%.
As to `C=CC(=O)Nc1ccc(-n2ccccc2=O)cc1F` [3-J16, N-[2-fluoro-4-(2-oxo-1,2-dihydropyridin-1-yl)phenyl]prop-2-enamide], the “% of control remaining” value amounted to 91.7368%.
On to `C=CC(=O)NC(C)c1nc(C2CCCCC2)no1` (stereo not drawn) [1-N17, N-[1-(3-cyclohexyl-1,2,4-oxadiazol-5-yl)ethyl]prop-2-enamide], for which the “% of control remaining” value was 87.5934%.
Next, `C#Cc1cccc(N(Cc2cc3n(n2)CCCO3)C(=O)CCl)c1` [5-O10, 2-chloro-N-(3-ethynylphenyl)-N-({5H,6H,7H-pyrazolo[3,2-b][1,3]oxazin-2-yl}methyl)acetamide]: 99.1909%; `CC(Cl)C(=O)NC(C)c1ccc(Cl)cc1Cl` (stereo not drawn) [5-M15, 2-chloro-N-[1-(2,4-dichlorophenyl)ethyl]propanamide]: 80.8658%; `CC(Cl)C(=O)N1CCCN(C(=O)c2cc(Cl)cn2C)CC1` (stereo not drawn) [7-N07, 2-chloro-1-[4-(4-chloro-1-methyl-1H-pyrrole-2-carbonyl)-1,4-diazepan-1-yl]propan-1-one]: 80.8855%.
Regarding `C=CC(=O)N1CCC(C(=O)NC2CCCc3cc(F)ccc32)CC1` (stereo not drawn) [2-K18, N-(6-fluoro-1,2,3,4-tetrahydronaphthalen-1-yl)-1-(prop-2-enoyl)piperidine-4-carboxamide], the “% of control remaining” value was determined as 78.153%.
Regarding `C=CC(=O)N1CCC(c2nc(C)no2)CC1` [3-E05, 1-[4-(3-methyl-1,2,4-oxadiazol-5-yl)piperidin-1-yl]prop-2-en-1-one], the “% of control remaining” value worked out at 109.381%.
For the compound `COc1ccc(CCN2C(=O)C=CC2=O)cc1OC` [10-H07, 1-[2-(3,4-dimethoxyphenyl)ethyl]-2,5-dihydro-1H-pyrrole-2,5-dione], the “% of control remaining” value is on record as 98.344%.
Consider `C=CC(=O)N1CSCC1C(=O)N1CCOCC1` (stereo not drawn) [2-N21, 1-[4-(morpholine-4-carbonyl)-1,3-thiazolidin-3-yl]prop-2-en-1-one], for which the “% of control remaining” value amounted to 96.0629%.
Next, `NS(=O)(=O)c1cccc(N2C(=O)C=CC2=O)c1` [10-I05, 3-(2,5-dioxo-2,5-dihydro-1H-pyrrol-1-yl)benzene-1-sulfonamide]: 102.396%.
Consider `C=CC(=O)Nc1cc(Cl)cc(C)c1OC` [1-E16, N-(5-chloro-2-methoxy-3-methylphenyl)prop-2-enamide], for which the “% of control remaining” value stood at 87.145%.
Take `O=C1C=CC(=O)N1c1cc(C(F)(F)F)ccc1Cl` [10-G09, 1-[2-chloro-5-(trifluoromethyl)phenyl]-2,5-dihydro-1H-pyrrole-2,5-dione]: the “% of control remaining” value is 26.3394%.
As for `CC(Cl)C(=O)N1Cc2ccccc2OC(C)(C)C1` (stereo not drawn) [6-H19, 2-chloro-1-(2,2-dimethyl-2,3,4,5-tetrahydro-1,4-benzoxazepin-4-yl)propan-1-one], the “% of control remaining” value worked out at 89.7905%.
As to `Cc1cccc(NC(=O)C(C#N)=Cc2cnc3ccc(C#N)cn23)c1` [9-O18, 2-cyano-3-{6-cyanoimidazo[1,2-a]pyridin-3-yl}-N-(3-methylphenyl)prop-2-enamide], the “% of control remaining” value was 90.3467%.
In the case of `O=C(CCl)N1c2ccccc2Sc2ccc(Cl)cc21` [4-N07, 2-chloro-1-(2-chloro-10H-phenothiazin-10-yl)ethan-1-one], the “% of control remaining” value stood at 99.3746%.
Turning to `CCOC(=O)c1c2c(nn1C)CCN(C(=O)C(C)Cl)C2` (stereo not drawn) [7-I07, ethyl 5-(2-chloropropanoyl)-2-methyl-2H,4H,5H,6H,7H-pyrazolo[4,3-c]pyridine-3-carboxylate], the “% of control remaining” value was 74.5415%.
Next, `COc1ccc2c(c1)CCCN(C(=O)C(C)Cl)C2` (stereo not drawn) [5-D17, 2-chloro-1-(7-methoxy-2,3,4,5-tetrahydro-1H-2-benzazepin-2-yl)propan-1-one]: 91.4574%.
Regarding `Cc1cc(C(C)(C)C)cc(C)c1NC(=O)CCl` [4-L19, N-(4-tert-butyl-2,6-dimethylphenyl)-2-chloroacetamide], the “% of control remaining” value stood at 96.4417%.
On to `O=C(CCl)N1N=C(c2cccc(F)c2)CC1c1cccs1` (stereo not drawn) [4-E22, 2-chloro-1-[3-(3-fluorophenyl)-5-(thiophen-2-yl)-4,5-dihydro-1H-pyrazol-1-yl]ethan-1-one], for which the “% of control remaining” value turned out to be 114.729%.
As to `C=CC(=O)N1CCC(C(=O)N2CCCC2C2OCCO2)CC1` (stereo not drawn) [2-L12, 1-{4-[2-(1,3-dioxolan-2-yl)pyrrolidine-1-carbonyl]piperidin-1-yl}prop-2-en-1-one], the “% of control remaining” value was found to be 91.2767%.
For `N#CC(=Cc1cccs1)C(=O)NCc1ccco1` [9-L08, 2-cyano-N-[(furan-2-yl)methyl]-3-(thiophen-2-yl)prop-2-enamide], the “% of control remaining” value is 83.5486%.
Take `C=CC(=O)N1CCOCC1c1ncnn1Cc1ccccc1` (stereo not drawn) [1-L12, 1-[3-(1-benzyl-1H-1,2,4-triazol-5-yl)morpholin-4-yl]prop-2-en-1-one]: the “% of control remaining” value is listed as 59.1266%.
In the case of `C=CC(=O)Nc1ccc(OC)cc1S(C)(=O)=O` [1-C04, N-(2-methanesulfonyl-4-methoxyphenyl)prop-2-enamide], the “% of control remaining” value is 101.794%.
In the case of `CC1CN(CCCNC(=O)CCl)CC(C)O1.Cl` (stereo not drawn) [6-G11, 2-chloro-N-[3-(2,6-dimethylmorpholin-4-yl)propyl]acetamide hydrochloride], the “% of control remaining” value is reported as 83.2686%.
